Experimental data published in the supplement of paper PMC5998384.

Assays:
HeLa Kyoto [1] = assay: thermal stability score vs G1/S (z-score of summed log2 fold changes over temperatures); higher = more thermally stable than in G1/S
HeLa Kyoto [2] = assay: melting temperature (median over replicates), in situ; higher = more thermally stable
HeLa Kyoto [3] = assay: solubility in G1/S (NP-40 vs SDS abundance) (log2 ratio); higher = more soluble; settings: cell cycle stage: G1/S
HeLa Kyoto [4] = assay: solubility change mitosis vs G1/S (difference of NP-40 vs SDS log2 ratios) (log2 ratio difference); higher = more soluble in mitosis
[5] = cell cycle stage: early G1 (4.5 h after nocodazole release)
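For melting temperature (median over replicates), in situ in this document: HeLa Kyoto cells synchronized by double thymidine or nocodazole block, proteins quantified by TMT10plex mass spectrometry, three independent biological replicates.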
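For solubility change mitosis vs G1/S (difference of NP-40 vs SDS log2 ratios) in this document: synchronized HeLa Kyoto cells (double thymidine block for G1/S, nocodazole release for mitosis), protein amounts in NP-40 versus SDS lysates quantified by mass spectrometry, three biological replicates.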
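For solubility in G1/S (NP-40 vs SDS abundance) in this document: HeLa Kyoto cells arrested at G1/S by double thymidine block, proteins quantified by TMT10plex mass spectrometry in mild NP-40 versus SDS extracts, three biological replicates.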
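For thermal stability score vs G1/S (z-score of summed log2 fold changes over temperatures) in this document: synchronized HeLa Kyoto cells, proteins quantified by TMT10plex mass spectrometry, three biological replicates, mitosis taken 0.5 h after nocodazole release, G1/S directly after double thymidine block.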

| Substance | thermal stability score (HeLa Kyoto [1]; [5]) | thermal stability score (HeLa Kyoto [1]; cell cycle stage: mitosis) | melting temperature (HeLa Kyoto [2]; cell cycle stage: G1/S) [°C] | melting temperature (HeLa Kyoto [2]; cell cycle stage: mitosis) [°C] | solubility in G1/S (log2) (HeLa Kyoto [3]) | solubility change mitosis (log2) (HeLa Kyoto [4]) |
| --- | --- | --- | --- | --- | --- | --- |
| RAB7A (sequence left out) | -0.154 | -1.67 | 58.6 | 58.7 | 0.194 | -0.0341 |
| SNRNP70 (sequence left out) | -2.71 | -2.66 | 50.8 | 50.8 | -0.825 | 0.314 |
